Source: ChEMBL document CHEMBL1201862, “PubChem BioAssay data set” (2004)

The molecules below were run on NCI-H322M (assay: growth of human tumour cells (NCI), 48 h).
For `CC(C)c1ccc2c(c1)[C@@]1(C)CC[C@H](C)C(C)(C)C1CC2` (some centres not stated), the GI50 was inactive: 17.4 µM.
`C/C(=N\Nc1ccccc1)C(CN(C)C)C(c1ccccc1)c1c(O)c2ccccc2oc1=O` (configuration not stated) was tested, and the GI50 was inactive: > 100 µM.
For `O=C(O)CSc1ccn(Cc2ccccc2)c1`, the GI50 was inactive: > 100 µM.
With `Cc1cc(C)nc(NC(=O)c2ccc(Br)s2)c1` the GI50 was inactive: > 100 µM.
With `COc1c(OC)c(N)c2cc(C)c(=O)c(C)cc2c1N` the GI50 was inactive: > 100 µM.
For `Cc1ccc2c(c1C)CC1(Cc3c(C)ccc(C)c3C1=O)C2=O` (configuration not stated), the GI50 was inactive: > 100 µM.
With `COC(=O)/C=C(C)/C=C/C1OC(C)OCC1O` (configuration not stated) the GI50 was inactive: > 100 µM.
With `COCCOC(=O)NCn1cc(-c2ccccc2)nn1` the GI50 was inactive: > 100 µM.
In the case of `Cc1cc2c(c(C)c1O)C(C)(C)CN2C(=O)C(C)(C)C`, the GI50 is reported as inactive: > 100 µM.
`C=C(C)C(=O)O[C@H]1CC2(CO)O[C@@H]2CC/C(COC(C)=O)=C/C2OC(=O)C(=C)[C@@H]21` (some centres not stated) was tested, and the GI50 was inactive: > 100 µM.
In the case of `CCN(CC)c1c(C(=O)/C=C/c2ccc(F)cc2)c(-c2ccccc2)nn(C)c1=O`, the GI50 is reported as inactive: 5.36 µM.
With `Cc1n[nH]/c(=N\S(=O)(=O)c2ccc(/N=N/c3c(O)c(C(=O)O)cc4ccccc34)cc2)s1` the GI50 was inactive: > 100 µM.
`Nc1ccc(-c2nc3ccccc3s2)cc1Br` was tested, and the GI50 was inactive: > 83.8 µM.
`O=C(NC(Cc1ccc(Br)cc1)C(=O)O)c1ccc(I)cc1` (configuration not stated) was tested, and the GI50 was inactive: > 100 µM.
In the case of `COc1ccc(/C=C2\OC(=O)C(Cl)=C2c2ccc(OC)cc2)cc1`, the GI50 is reported as inactive: > 100 µM.
In the case of `O=[N+]([O-])c1cccc2c1[nH]c1c(-c3ccccc3)nccc12`, the GI50 is reported as inactive: 2.21 µM.
`CC1=C(C(=O)Nc2cccc(Cl)c2)C(c2ccccc2O)C(C(=O)Nc2cccc(Cl)c2)=C(C)N1` was tested, and the GI50 was inactive: 25.2 µM.
With `COC(=O)C(=O)C(C#N)c1nc2ccccc2s1` (configuration not stated) the GI50 was inactive: > 100 µM.
In the case of `CCOC(=O)C(=O)Nc1ccc(Cl)cc1C`, the GI50 is reported as inactive: > 100 µM.
With `C1CSCCSCCSCCSC1` the GI50 was inactive: > 100 µM.
With `OC1C2CCCCN2C[C@@H](O)[C@H]1O` (some centres not stated) the GI50 was inactive: > 100 µM.
In the case of `CC[C@@]1(OC(=O)C(N)CCC(=O)O)C(=O)OCc2c1cc1n(c2=O)Cc2cc3ccccc3nc2-1` (some centres not stated), the GI50 is reported as active: 0.404 µM.
For `CC(=O)NNc1nc(C)c(C(=O)NNC(=O)C(=O)Nc2ccc(Cl)cc2Cl)s1`, the GI50 was inactive: 47 µM.
For `Cc1c[nH]c(C(=O)O)c1-c1ccc2c(-c3ccccc3)nc3ccccc3n12`, the GI50 was inactive: 36.3 µM.
With `O=C(c1ccccc1)c1ccc(N2C(=O)/C(=C/c3cccc(Oc4ccccc4)c3)N=C2c2ccccc2)c(N2C(=O)/C(=C/c3cccc(Oc4ccccc4)c3)N=C2c2ccccc2)c1` the GI50 was inactive: 71.1 µM.
In the case of `COc1cc2c(OC)c3cc(C)oc(=O)c3c(O)c2c(O)c1-c1c(OC)cc2c(OC)c3cc(C)oc(=O)c3c(O)c2c1O`, the GI50 is reported as inactive: 18.8 µM.
For `O=[N+]([O-])c1ccc2nc(Cl)n[n+]([O-])c2c1`, the GI50 was inactive: 18.3 µM.
With `NC(=O)COC(=O)c1c(Cl)nc2sccn12` the GI50 was inactive: > 100 µM.
`COC(=O)C1=C(C)NC(C)=C(C(=O)OC)C1c1nc2sccn2c1[N+](=O)[O-]` was tested, and the GI50 was inactive: > 100 µM.
`CNS(=O)(=O)NN(C)S(=O)(=O)c1ccc(F)cc1` was tested, and the GI50 was inactive: > 100 µM.
In the case of `CN(C)CC/C(=N\Nc1ccc(Cl)c(Cl)c1)c1ccccc1`, the GI50 is reported as inactive: 4.91 µM.
With `OCCCc1cc(O)c2c(c1)C(CO)C(c1ccc(O)c(O)c1)O2` (configuration not stated) the GI50 was inactive: > 100 µM.
In the case of `O=C(O)c1cc2ccccc2c(/N=N/c2c([N+](=O)[O-])cc([N+](=O)[O-])cc2S(=O)(=O)O)c1O`, the GI50 is reported as inactive: > 100 µM.
`O=C(OCCN1CCCCC1)C(c1ccccc1)C1(O)CCSCC1` (configuration not stated) was tested, and the GI50 was inactive: > 100 µM.
For `CCOc1ccc(Nc2nc(N)nc(N)c2N)cc1`, the GI50 was inactive: > 100 µM.
In the case of `CC(C)C(C(=O)N1CCC[C@@H]1C(=O)OCc1ccccc1)N(C)C(=O)C(C(C)C)N(C)C(=O)[C@H](Cc1ccccc1)N(C)C(=O)[C@H](NC(=O)OC(C)(C)C)C(C)C` (some centres not stated) (Boc-[dV][NMeF][ξNMeV][ξNMeV][dP]-OBn), the GI50 is reported as inactive: > 100 µM.
For `Nc1nc(N)c(CCCCc2ccccc2)c(C=O)n1`, the GI50 was inactive: 17.2 µM.
With `C[N+](C)(C)CC1CCCC1=O` (configuration not stated) the GI50 was inactive: 17.1 µM.
`CC(C)=CCC[C@@H](C)c1c2nc3ccccc3sc-2c(C)c(=O)c1O` was tested, and the GI50 was inactive: 7.64 µM.
With `O=S(=O)(Nc1ccccc1)c1ccc(-c2c3nc(c(-c4ccc(S(=O)(=O)Nc5ccccc5)cc4)c4ccc([nH]4)c(-c4ccc(S(=O)(=O)Nc5ccccc5)cc4)c4nc(c(-c5ccc(S(=O)(=O)Nc6ccccc6)cc5)c5ccc2[nH]5)C=C4)C=C3)cc1` the GI50 was inactive: 28.6 µM.
With `CC1(c2ccccc2)CCN(C2CC2)CO1` (configuration not stated) the GI50 was inactive: > 100 µM.
For `COc1cc(/C=C/C(=O)O)ccc1OS(=O)(=O)O`, the GI50 was inactive: > 100 µM.
For `NCCCn1c2ccccc2c2c3c(c4c(c21)CCC(O)CC4)C(=O)NC3=O` (configuration not stated), the GI50 was inactive: 3.25 µM.
For `CS/C(=N/C#N)NCCc1c[nH]c2ccccc12`, the GI50 was inactive: > 100 µM.
With `N#Cc1c(-c2ccc(Cl)cc2)[nH]c(=O)n(C2OC(CO)C(O)C(O)C2O)c1=O` (configuration not stated) the GI50 was inactive: > 100 µM.
`O=C(O)CN1CCNCCN(CC(=O)O)CCN(CC(=O)O)CCNCC1` was tested, and the GI50 was inactive: 97.5 µM.
For `Cc1ccc(CNNC(=O)c2cc[n+]([BH2-]C#N)cc2)cc1`, the GI50 was inactive: > 100 µM.
In the case of `CCCCC(=O)N/S(=N/C(=O)c1ccccc1)C(Cl)(Cl)Cl` (configuration not stated), the GI50 is reported as inactive: > 100 µM.
With `OC1(c2ccc(Cl)cc2)c2ccccc2-c2nc3ccccc3n21` (configuration not stated) the GI50 was inactive: > 100 µM.
`c1cc2cc(c1)CN1CCNCCN(CCNCC1)Cc1cccc(c1)CN1CCNCCN(CCNCC1)C2` was tested, and the GI50 was inactive: > 100 µM.
`Cc1cc(C)c(-n2c(C)c(C)c(C#N)c2N)c(C)c1` was tested, and the GI50 was inactive: 56.5 µM.
For `Oc1cc(-c2cccc(OC(F)(F)F)c2)nc2ccc(N3CCCC3)cc12`, the GI50 was active: 0.00102 µM.
For `O=C(O)CCCCn1ccc(=O)[nH]c1=O`, the GI50 was inactive: > 100 µM.
For `O=C(/C=C/c1ccccc1)CSc1nc[nH]n1`, the GI50 was inactive: > 100 µM.
`CC(=O)Nn1cnc(C(=N)C#N)c1N` was tested, and the GI50 was inactive: > 100 µM.
In the case of `Cc1nc2c(O)c3c(c(O)c2nc1C)C1C=CC3CC1`, the GI50 is reported as inactive: 57.8 µM.
With `Cc1cc(N(CCC#N)CCC#N)ccc1/C=C(\NC(=O)/C=C/c1ccccc1)C(=O)NN` the GI50 was inactive: > 93.3 µM.
For `COc1ccc(-n2c(=O)n(-c3ccccc3)c(=O)n2-c2ccc(OC)cc2)cc1`, the GI50 was inactive: > 100 µM.
In the case of `Cc1cc(N(CCC#N)CCC#N)ccc1/C=N/NC(=O)c1ccccc1`, the GI50 is reported as inactive: 31.8 µM.
In the case of `Cn1c(=O)c(C(=O)Nc2nc(C34CC5CC(CC(C5)C3)C4)cs2)c(O)c2ccccc21`, the GI50 is reported as inactive: > 100 µM.
`C[C@@H]1CC[C@@]2(C)[C@H](C)/C(=C\COC(=O)/C=C/c3ccc(O)c(O)c3)CC[C@@]12C` [NAVICULYL CAFFEATE] was tested, and the GI50 was inactive: 12.5 µM.
`O=S(=O)(O)c1cc(/N=[N+](\[O-])c2cc(S(=O)(=O)O)c3ccccc3c2)cc2ccccc12` was tested, and the GI50 was inactive: 40.6 µM.
With `CON(C)C(=O)C(C)N(Cc1ccccc1)Cc1ccccc1` (configuration not stated) the GI50 was inactive: > 100 µM.
`CSC1NC=Nc2c1sc(=S)n2-c1ccccc1` (configuration not stated) was tested, and the GI50 was inactive: > 100 µM.
For `CC(C)N(C(=O)C12C3C4C5C3C1(C(=O)O)C5C42)C(C)C` (configuration not stated), the GI50 was inactive: > 100 µM.
`CC(/C=N/N=C1NCCCCN1)=N\N=C1NCCCCN1` was tested, and the GI50 was inactive: > 100 µM.
`Cc1ccc(S(=O)(=O)NCCN(CCNS(=O)(=O)c2ccc(C)cc2)S(=O)(=O)c2ccc(C)cc2)cc1` was tested, and the GI50 was inactive: 27.6 µM.
For `CC(=O)CCC#Cc1ccccc1C(=O)C(C)=[N+]=[N-]`, the GI50 was inactive: 61.8 µM.
With `Clc1ccc(CCNCCNC2(c3cc4ccccc4s3)CCCCC2)cc1Cl` the GI50 was inactive: 2.15 µM.
With `O=C(Nc1ncc([N+](=O)[O-])s1)c1ccccc1O` [TIZOXANIDE] the GI50 was inactive: 19.8 µM.
`C[C@H]1CCC/C=C/[C@@H]2C[C@H](O)C[C@H]2[C@H](O)/C=C/C(=O)O1` [BREFELDIN A] was tested, and the GI50 was active: 36.4 nM and active: 46.2 nM.
In the case of `COC(=O)C(=O)C(C(=O)OC)C(=O)C(=O)Nc1c(Cl)cc([N+](=O)[O-])cc1Cl` (configuration not stated), the GI50 is reported as inactive: 50.5 µM.
With `CC1=NN=C(N)N/C1=C/C(Sc1ccc(Cl)cc1)c1cccs1` (configuration not stated) the GI50 was inactive: 21.7 µM.
`O=C1/C(=C/c2cccc([N+](=O)[O-])c2)N=C(c2ccccc2)N1c1nc2c(Cl)cc(Cl)cc2s1` was tested, and the GI50 was inactive: 34.5 µM.
In the case of `CCOC(=O)C1=C(N)N(c2ccccc2)/C(=C(/C#N)c2nc3ccccc3[nH]2)S1`, the GI50 is reported as inactive: > 100 µM.
With `COC(=O)CC1NC(=O)C1C1(C)OCCO1` (configuration not stated) the GI50 was inactive: > 100 µM.
With `O=C(Cn1c(=O)oc2ccc(C(=O)c3cccc(Cl)c3)cc21)c1ccccc1` the GI50 was inactive: > 100 µM.
For `COc1cc(/C=C/C(=O)c2cccc3ccccc23)cc(OC)c1OC`, the GI50 was inactive: 13.5 µM.
For `NC1=NS(=O)(=O)Nc2nc(-c3ccc([N+](=O)[O-])cc3)[nH]c21`, the GI50 was inactive: > 100 µM.
With `Cc1cc(S(N)(=O)=O)c(S/C(=N\Nc2ccc([N+](=O)[O-])cc2)c2ccc(Cl)cc2)cc1Cl` the GI50 was inactive: 1.77 µM.
`O=C1NC(=S)N/C1=C\c1cc2c(=O)c3ccccc3sc2s1` was tested, and the GI50 was inactive: > 100 µM.
For `Cc1oc2c(c1C(=O)c1ccccc1)C(=O)c1ccccc1C2=O`, the GI50 was inactive: 16.7 µM.
For `Cc1cc2c(c(C(N)=O)c1C)-c1cccc(F)c1C2=O`, the GI50 was inactive: > 100 µM.
`Nc1ccn(C2OC(CO[PH](=O)OC3C(CO[PH](=O)OC4C(CO[PH](=O)OC5C(CO[PH](=O)OC6C(CO[PH](=O)OC7C(CO[PH](=O)OC8C(CO[PH](=O)OC9C(CO[PH](=O)OC%10C(CO[PH](=O)OC%11C(CO)OC(n%12ccc(N)nc%12=O)C%11(F)F)OC(n%11ccc(N)nc%11=O)C%10(F)F)OC(n%10ccc(N)nc%10=O)C9(F)F)OC(n9ccc(N)nc9=O)C8(F)F)OC(n8ccc(N)nc8=O)C7(F)F)OC(n7ccc(N)nc7=O)C6(F)F)OC(n6ccc(N)nc6=O)C5(F)F)OC(n5ccc(N)nc5=O)C4(F)F)OC(n4ccc(N)nc4=O)C3(F)F)C(O)C2(F)F)c(=O)n1` (configuration not stated) was tested, and the GI50 was inactive: 5.14 µM.
In the case of `COc1ccc2oc(=O)c(-c3csc(-c4ccccc4)n3)cc2c1`, the GI50 is reported as inactive: 67.8 µM.
In the case of `Cc1ccc(S(=O)(=O)N/N=C\c2c3ccccc3[n+]([O-])c3ccccc23)cc1`, the GI50 is reported as inactive: 7.23 µM.
In the case of `O=C1OCC2=C1C(c1ccc(Cl)cc1)c1cc3c(cc1O2)OCO3` (configuration not stated), the GI50 is reported as inactive: 8.32 µM.

Values joined by “and” are separate entries in the source; they are usually repeats but may differ in a detail not shown here. Identical values can stand only once.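 Five concentrations, 48 hours, 96-well plates. Here, GI50 denotes the concentration required for 50% inhibition of growth.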 Active and inactive are the calls of the source. Rule as the data show it: active = GI50 up to about 1.1 µM and inactive = higher. Square brackets hold non-standard residues; d marks the D form. Peptide text beside a SMILES is read from it. * marks the point of attachment. ξ: configuration not given here. NMeF = CN[C@@H](Cc1ccccc1)C(=O)O; ξNMeV = CNC(C(=O)O)C(C)C; Boc = CC(C)(C)OC(=O)*; OBn = c1ccc(CO*)cc1
